# In PubChem BioAssay AID2675 (National Center for Advancing Translational Sciences (NCATS), 2010):
# The whole screen tested about 280,000 compounds, of which about 100 (0.036%) were called active. The shares of active, inactive and inconclusive entries below differ from those in the screen. Calls follow the shape of the dose curve; as a rule, active = well fitted inhibition curve with a large enough effect in the signal ratio, with a control signal flat (not every such curve was filed as active); inconclusive = small, poorly fitted or top-dose-only effect, or effect the other way, or a change in a side signal; inactive = no such curve, though single readings can be large or run the other way; the % refers to the signal ratio. Where the call is inconclusive, the potency comes from a doubtful curve fit. A note “side channel” means that the fit belongs to a control or component signal, not to the main read-out.
# Target: Muscleblind-like protein 1 (Homo sapiens) (UniProt Q9NR56)
# Chain of UniProt Q9NR56 (Q9NR56 whole entry, looked up): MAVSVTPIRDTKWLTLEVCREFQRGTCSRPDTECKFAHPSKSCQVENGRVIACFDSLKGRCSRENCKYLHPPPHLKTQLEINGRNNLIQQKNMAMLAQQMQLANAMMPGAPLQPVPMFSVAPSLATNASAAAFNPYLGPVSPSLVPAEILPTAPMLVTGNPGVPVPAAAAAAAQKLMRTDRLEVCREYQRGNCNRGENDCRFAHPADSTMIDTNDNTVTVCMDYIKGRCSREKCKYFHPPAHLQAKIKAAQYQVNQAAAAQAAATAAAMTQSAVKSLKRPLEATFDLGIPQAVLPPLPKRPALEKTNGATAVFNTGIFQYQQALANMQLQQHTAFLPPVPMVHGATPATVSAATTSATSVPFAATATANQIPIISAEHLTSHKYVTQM
# Assay: qHTS Assay for Inhibitors of MBNL1-poly(CUG) RNA binding
# Settings: TR-FRET MBNL1-His/biotin-(CUG)12 binding, 665/545 ratio; activity change, negative = inhibition: at 57.5 µM (top of the series)
# Summary of the method: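 Inhibition of protein-RNA binding appears as loss of TR-FRET between terbium anti-His antibody on MBNL1-His and streptavidin-XL665 on biotin-(CUG)12. Activity is normalized to buffer-only and uninhibited-complex controls.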
# % is scaled to controls: 0 for no effect and ±100 for the full control effect; potency is read from the fitted curve at half-maximal effect; tags tell the direction and shape of the fitted curve or compound fluorescence and quenching.
SMILES,Potency,"activity change, negative = inhibition"
Cn1cccc1CC(=O)N/N=C/c1cc([N+](=O)[O-])ccc1Cl,"inconclusive: 12.6 µM [quencher, side channel, partial curve]",–
Cc1ccc(CNC(=O)CCc2ccc(S(=O)(=O)NCC(C)C)cc2)cc1,"inconclusive: 5.01 µM [fluorescent, side channel, single point]",–
CN(C)/C=C1\C=C2C(=O)c3ccccc3N2C1=O,"inconclusive: 12.6 µM [quencher, side channel, partial curve]",–
Cc1occc1C(=O)Nc1cccc([N+](=O)[O-])c1,"inconclusive: 15.8 µM [quencher, side channel, partial curve]",–
CN(C)CCNc1ccc(Cl)cc1[N+](=O)[O-],"inconclusive: 15.8 µM [quencher, side channel, partial curve]",–
COc1cc(C(Nc2ccccn2)c2ccc3ccc(C)nc3c2O)cc(OC)c1O (stereo unspecified),"inconclusive: 20 µM [quencher, side channel, single point]",–
O=C(Nc1ccccc1O)c1ccc([N+](=O)[O-])cc1,"inconclusive: 14.1 µM [quencher, side channel, partial curve]",–
COCCn1c(=NC(=O)c2ccc(S(=O)(=O)N3CCOCC3)cc2)sc2cc(S(N)(=O)=O)ccc21,"inconclusive: 39.8 µM [fluorescent, side channel, single point]",–
COc1ccc(C(=O)NCCc2ccccc2)cc1[N+](=O)[O-],"inconclusive: 15.8 µM [quencher, partial curve]",–
NNc1ncnc2scc(-c3ccc(Cl)cc3)c12,inactive,–
O=C(Cc1ccccc1)NC1CCN(C(=O)c2ccc([N+](=O)[O-])cc2)CC1,"inconclusive: 12.6 µM [quencher, side channel, partial curve]",–
CN1CCN(NC(=O)c2cc(-c3cccc(Cl)c3)nc3ccccc23)CC1,inactive,–
COc1cccc(/C=C2\Oc3cc(OCC(=O)N4CCCCC4)ccc3C2=O)c1OC,"inconclusive: 15.8 µM [quencher, side channel, partial curve]",–
O=C(CNC(=O)c1ccco1)N/N=C/c1ccc(O)cc1O,inactive,–
O=C1ON=C(c2ccccc2)/C1=C/c1ccc(O)c(O)c1,"inconclusive: 39.8 µM [quencher, single point]",–
CCN1C(=O)CC(N2CCN(c3ccc(C(=O)c4ccncc4)cc3)CC2)C1=O (stereo unspecified),"inconclusive: 14.1 µM [quencher, side channel, partial curve]",–
CN1CCN(C(=O)/C=C/c2ccc(C#N)cc2)CC1,"inconclusive: 11.2 µM [quencher, side channel, partial curve]",–
COc1ccc(-c2ccccc2)cc1NCc1ccc(OC)c(OC)c1,inactive,–
Cn1c(=O)c(=O)n(C)c2cc([N+](=O)[O-])c(N3CCOCC3)cc21,"inconclusive: 12.6 µM [quencher, side channel, partial curve]",–
CCN=C1NN=C(c2c[nH]c3ccccc23)CS1,"inconclusive: 28.2 µM [quencher, side channel, partial curve]",–
C/C(=N\NC(=O)c1cccc([N+](=O)[O-])c1)c1cccnc1,"inconclusive: 28.2 µM [quencher, side channel, partial curve]",–

SMILES,Potency,"activity change, negative = inhibition"
COc1ccc(N/N=C(/C)c2cnnc(-c3ccccc3)n2)cc1,inactive,–
COc1cccc(N2CCN(S(=O)(=O)c3cccc4nsnc34)CC2)c1,"inconclusive: 22.4 µM [quencher, side channel, partial curve]",–
CCOc1ccc(C(=O)CSc2nnc(C3CC3)n2C)cc1,–,inconclusive: -8.06% [phenotype inactive]
CCOC(=O)c1c(C)oc2cc(Br)c(OCC(N)=O)cc12,"inconclusive: 3.55 µM [quencher, side channel, partial curve]",–
COc1cc(/C=N/NC(=O)Nc2ccccc2)ccc1OCCOc1ccccc1C,–,inconclusive: -7.89% [phenotype inactive]
COc1cccc(Cn2cnc3c(NS(=O)(=O)c4cccc(Cl)c4Cl)c(C)c(C)cc32)c1,"inconclusive: 8.91 µM [quencher, side channel, single point]",–
Cc1c(NC(=O)c2cccc(F)c2)c(=O)n(-c2ccccc2)n1C,inactive,–
CC(=O)Nc1c(-c2cc(=O)oc3cc(C)ccc23)oc2ccccc12,"inconclusive: 12.6 µM [quencher, partial curve]",–
Cn1c(-[n+]2c(-c3ccccc3)cc(-c3ccccc3)cc2-c2ccccc2)nc2cc([N+](=O)[O-])ccc21,"inconclusive: 8.91 µM [quencher, side channel, partial curve, poor fit]",–
Cc1ccccc1N=C1NC(=O)CS1,inactive,–
CCC(=O)NCC(=O)OCC(=O)c1ccccc1,inactive,–
COc1ccc(/C=N/Nc2ncccc2[N+](=O)[O-])c(OC)c1,"inconclusive: 5.01 µM [quencher, side channel, full curve]",–
CC(=O)Nc1nnc(-c2ccc(Cl)s2)o1,"inconclusive: 1.58 µM [quencher, side channel, full curve]",–
CCOc1ccc(Br)cc1S(=O)(=O)Nc1ccc(C(=O)Nc2ccccc2OC)cc1,"inconclusive: 2.82 µM [quencher, side channel, full curve]",–
CN(C)c1ccc(/C=C/c2nc3ccccc3c(=O)n2CCO)cc1,"inconclusive: 15.8 µM [quencher, side channel, partial curve]",–
Brc1ccc(CSc2nnc(-c3ccccn3)n2Cc2ccco2)cc1,inactive,–
O=C(c1cc([N+](=O)[O-])ccc1Cl)N1CCc2ccccc21,"inconclusive: 25.1 µM [quencher, side channel, partial curve]",–
C=CCNC(=O)c1ccc(CSc2nc3ccccc3s2)cc1,"inconclusive: 12.6 µM [quencher, side channel, partial curve]",–
COc1ccccc1-c1ccc(C(=O)O)o1,inactive,–
Cc1ccc(C(=O)NC2CCCc3ccccc32)cc1[N+](=O)[O-] (stereo unspecified),inactive,–
CCOC(=O)c1ccc(-c2ccc(/C=C(\C#N)C(=O)NCC3CCCO3)o2)cc1 (stereo unspecified),"inconclusive: 2 µM [quencher, side channel, partial curve, poor fit]",–

SMILES,Potency,"activity change, negative = inhibition"
CNc1nc(-c2ccc([N+](=O)[O-])cc2)cs1,"inconclusive: 8.91 µM [quencher, side channel, partial curve]",–
CCOC(=O)N1CCN(C(=O)c2cc3c(s2)-c2ccccc2OC3)CC1,"inconclusive: 39.8 µM [quencher, single point]",–
Cc1c(Cl)c([N+](=O)[O-])nn1CC(=O)N1CCc2ccccc2C1,"inconclusive: 12.6 µM [quencher, side channel, partial curve]",–
O=C(O)c1ccc(Nc2ccc(Cl)c(Cl)c2)c([N+](=O)[O-])c1,"inconclusive: 17.8 µM [quencher, side channel, partial curve]",–
O=C(O)c1ccccc1NS(=O)(=O)c1cccc2nsnc12,"inconclusive: 14.1 µM [quencher, partial curve]",–
Cc1cc(C(=O)N/N=C/c2ccc(N3CCOCC3)cc2)c(C)o1,"inconclusive: 20 µM [quencher, side channel, single point]",–
COc1ccc(/C=N\Nc2ncc(F)c(N3CCOCC3)n2)cc1OC,"inconclusive: 31.6 µM [quencher, side channel, single point]",–
NC(=O)[C@H]1CC2(CC(c3cccc(NC(=O)COc4ccc(Cl)cc4)c3)=NO2)CN1C(=O)Cc1ccc([N+](=O)[O-])cc1 (stereo partly specified),"inconclusive: 11.2 µM [quencher, side channel, partial curve]",–
Cc1nn2cnc3sc4c(c3c2nc1=O)CCCC4,"inconclusive: 3.98 µM [quencher, side channel, single point]",–
CCn1c(O)c(C=NC2CCCC2)sc1=S,"inconclusive: 14.1 µM [quencher, side channel, partial curve]",–
O=C(/C=C/c1ccc(Cl)cc1)N(Cc1cccs1)C1CCS(=O)(=O)C1 (stereo unspecified),"inconclusive: 8.91 µM [quencher, side channel, partial curve]",–
O=C1/C(=C/c2ccncc2)N=C2CCCCCN12,"inconclusive: 17.8 µM [quencher, side channel, partial curve]",–
COCCCNc1nc2ccccc2nc1NS(=O)(=O)c1cc(Cl)ccc1Cl,inactive,–
O=C1CSC(c2ccc([N+](=O)[O-])cc2)N1c1ccccc1F (stereo unspecified),"inconclusive: 25.1 µM [quencher, side channel, partial curve]",–
CCOC(=O)C1(CCCc2ccccc2)CCN(Cc2cn(CC)nc2C)CC1,"inconclusive: 31.6 µM [inhibitor, partial curve]",–
CC1(C)CC(NC(=O)c2cccc([N+](=O)[O-])c2)CC(C)(C)N1,"inconclusive: 12.6 µM [quencher, side channel, partial curve]",–
Cn1cc([N+](=O)[O-])c(C(=O)Nc2nccs2)n1,"inconclusive: 28.2 µM [quencher, side channel, partial curve]",–
CC1=CC(=O)C(C(C)C)=C/C1=N/OC(=O)c1cccc([N+](=O)[O-])c1,"inconclusive: 20 µM [quencher, side channel, partial curve]",–
COCCOC(=O)c1[nH]c2c(c1C)C(=O)C(C(=O)OC)C(C)C2 (stereo unspecified),inactive,–
